# The supplement of paper PMC9334596
# Several values for one entry are separate records, joined by “and”; a condition that tells them apart may be missing. Identical values can stand only once. Whole data set: some 5,300 compounds, median “PER2::LUC luminescence relative to vehicle control” near 0.96, cut for the highest 2% near 1.3. The list shows a part of the results.
# System: mPer2Luc MEF
# Test: PER2::LUC luminescence relative to vehicle control (fold of vehicle); higher = higher PER2::LUC reporter signal
# Conditions: 10 µM
# Method in brief: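 Compounds from commercial libraries were added at 10 μM to 384-well plates seeded 48 h earlier with ~3000 mPer2Luc mouse embryonic fibroblasts per well. The cells were kept in DMEM with 10% FBS at 37 °C and 5% CO2. Luminescence was read with ONE-Glo 24 h and 30 h after treatment, then an alamarBlue viability assay was run. Values are PER2::LUC luminescence relative to vehicle control, as fold change.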
Compound,PER2::LUC luminescence (time after treatment 24 h),PER2::LUC luminescence (time after treatment 30 h)
Cc1ncc(CNC(=O)N(CCCl)N=O)c(N)n1,1.04 and 1.05,1.04 and 0.853
CN1CCCCC1c1ccc(-c2cccnc2)nc1 (stereo unspecified),1.07,1.05
C[C@H]1CCC/C=C/[C@@H]2C[C@H](O)C[C@H]2[C@H](O)/C=C/C(=O)O1,1.15,1.13
CCC12C=CCN3CC[C@@]4(c5ccc(OC)cc5N(C)[C@H]4[C@@](O)(C(=O)OC)[C@@H]1OC(C)=O)[C@@H]32 (stereo partly specified),0.932,0.959
CC[C@@H](C)C(=O)O[C@H]1[C@H](O)[C@H]2[C@@H](CN3C[C@@H](C)CC[C@H]3[C@@]2(C)O)[C@@H]2C[C@]34O[C@]5(O)[C@@H](OC(=O)[C@](C)(O)[C@@H](C)O)CC[C@@]3(C)[C@@H]5[C@@H](OC(C)=O)[C@@H](OC(C)=O)[C@H]4[C@@]21O (stereo in doubt),1.02,0.887
C[N+](C)(C)CC#CCOC(=O)Nc1cccc(Cl)c1,1.01,0.91
CN1C[C@@H](NS(=O)(=O)N(C)C)C[C@@H]2c3cccc4c3c(cn4C)C[C@H]21,0.98,0.864
C[C@@H]1C[C@H]2CC[C@H](O2)[C@H](C)C(=O)O[C@@H](C)C[C@@H]2CC[C@@H](O2)[C@@H](C)C(=O)O[C@H](C)C[C@H]2CC[C@@H](O2)[C@H](C)C(=O)O[C@@H](C)C[C@@H]2CC[C@@H](O2)[C@@H](C)C(=O)O1,0.195,0.197
CC(C)(O)C(Cl)(Cl)Cl,0.988,0.812
Oc1cccc2cccnc12,1.05 and 0.704,0.978 and 1.09
CN1C(=O)CN=C(c2ccccc2Cl)c2cc(Cl)ccc21,0.902,0.953
N#C/C(=C\c1ccc(O)cc1)C(=O)O,1.01,0.99
CC(=O)Oc1ccc(/C=C/c2cc(OC(C)=O)cc(OC(C)=O)c2)cc1,1.76,1.65
COc1ccc(CCN)cc1OC,1.06,1.13
CC1=C(O)C(=O)C=C2C1=CC=C1[C@@]2(C)CC[C@@]2(C)[C@@H]3C[C@](C)(C(=O)O)CC[C@]3(C)CC[C@]12C,1.29,1.15
OC1CCCCC1N1CCC(c2ccccc2)CC1 (racemic),0.964,0.953
CCCN1C[C@H](CSC)C[C@@H]2c3cccc4[nH]cc(c34)C[C@H]21,0.869 and 0.875,0.878 and 0.855
CCCCc1ccc(C(=O)O)nc1,0.941,0.903
CN1CC[C@]23CCCC[C@H]2[C@H]1Cc1ccc(O)cc13,0.821,0.846
N.N.[Cl][Pt][Cl],0.873,0.677
CC(=O)Nc1ccc(Cc2ccc(NC(C)=O)cc2)cc1,1.07,1
COc1cc(-n2c(=S)[nH]c3ccccc3c2=O)c(Cl)cc1Cl,0.895,0.877
Oc1ccc2c3c1O[C@H]1c4[nH]c5c(c4C[C@@]4(O)[C@@H](C2)N(CC2CC2)CC[C@]314)C[C@@]1(O)[C@H]2Cc3ccc(O)c4c3[C@@]1(CCN2CC1CC1)[C@H]5O4,1.1,1.07
O=C(O[C@H]1C[C@H]2CC[C@@H](C1)[N+]21CCCC1)C(O)(c1ccccc1)c1ccccc1,0.95,0.776
Cc1[nH]c2ccc(O)cc2c1CCN,1.08 and 1.05,0.977 and 1.35

Compound,PER2::LUC luminescence (time after treatment 24 h),PER2::LUC luminescence (time after treatment 30 h)
C=CCN1CCc2cccc3c2[C@H]1Cc1ccc(O)c(O)c1-3,0.895,0.779
NC(=O)[C@@H]1CCCN1C(=O)[C@H](Cc1ccccc1)NC(=O)[C@@H]1CCCN1C(=O)[C@@H](N)Cc1ccc(O)cc1,1.01,0.94
COc1ccc(C(=O)N2CCCC2=O)cc1,0.979,0.999
CCCCCCCCCCCCCC(=O)O[C@@H]1[C@@H](C)[C@@]2(O)[C@@H](C=C(CO)C[C@]3(O)C(=O)C(C)=C[C@@H]23)[C@@H]2C(C)(C)[C@]12OC(C)=O,1.26,1.12
O=C1/C(=C/c2ccccc2)C[C@@]2(O)[C@H]3Cc4ccc(O)c5c4[C@@]2(CCN3CC2CC2)[C@H]1O5,0.553,0.22
CCS(=O)(=O)Nc1cccc(C(=C2CCCCC2)c2cnc[nH]2)c1,1.12,1.2
O=Cc1cn(Cc2ccc(Cl)cc2)c2ccccc12,0.923,0.941
CC[C@@]1(O)C[C@H](O)c2c(cc3c(c2O)C(=O)c2c(O)ccc(O)c2C3=O)[C@H]1C(=O)OC,0.79,1.05
O=C(O)CCCc1ccc(N(CCCl)CCCl)cc1,0.947 and 1.07,1.12 and 0.959
NCC(CS(=O)(=O)O)c1ccc(Cl)cc1 (stereo unspecified),0.909,1.05
COC(=O)[C@@H]1C[C@H](OC(C)=O)C(=O)[C@H]2[C@@]1(C)CC[C@H]1C(=O)O[C@H](c3ccoc3)C[C@]21C,1.08,0.999
CC[C@@H](C(N)=O)N1CCCC1=O,1.18,0.943
NCC(O)c1cc(O)c(O)cc1F (stereo unspecified),1.03,0.878
C[N+]1(C)CCOC(O)(c2ccc(-c3ccc(C4(O)C[N+](C)(C)CCO4)cc3)cc2)C1 (stereo unspecified),0.878,1.1
Nc1ccncc1,1.06 and 1.04,1.05 and 1.02
COc1ccc(-n2nc(C(F)(F)F)cc2-c2ccc(Cl)cc2)cc1,1.09,1.2
CN(C)Cc1c[nH]c2ccccc12,0.905,1.02
CCCCn1cc(C(=O)c2cccc3ccccc23)c2ccccc21,0.856,0.919
CC[C@H](C)[C@H]1O[C@]2(C=C[C@@H]1C)C[C@@H]1C[C@@H](C/C=C(\C)[C@@H](O[C@H]3C[C@H](OC)[C@@H](O[C@H]4C[C@H](OC)[C@@H](O)[C@H](C)O4)[C@H](C)O3)[C@@H](C)/C=C/C=C3\CO[C@@H]4[C@H](O)C(C)=C[C@@H](C(=O)O1)[C@]34O)O2.CO[C@H]1C[C@H](O[C@H]2[C@H](C)O[C@@H](O[C@@H]3/C(C)=C/C[C@@H]4C[C@@H](C[C@]5(C=C[C@H](C)[C@@H](C(C)C)O5)O4)OC(=O)[C@@H]4C=C(C)[C@@H](O)[C@H]5OC/C(=C\C=C\[C@@H]3C)[C@]54O)C[C@@H]2OC)O[C@@H](C)[C@@H]1O,0.781,0.858
CO[C@H]1CC=C2CCN3CCC4=C(CC(=O)OC4)[C@]23C1,1.06,0.84
C[C@]12CCC(=O)C=C1CC[C@@H]1[C@@H]2C(=O)C[C@]2(C)C(=O)CC[C@@H]12,0.947,0.92
COc1cc(C=C(C#N)C#N)cc(O)c1O,0.857,0.943
CC(C)[C@@]1(O)[C@@H](OC(=O)c2ccc[nH]2)[C@@]2(O)[C@@]3(C)C[C@]4(O)O[C@@]5([C@H](O)[C@@H](C)CC[C@]35O)[C@@]2(O)[C@@]14C,0.918,0.947
C[C@]12CCC(=O)C[C@@H]1CC[C@@H]1[C@@H]2CC[C@@]2(C)[C@H]1CC[C@]2(C)O,0.841,0.841
NC(=O)CN1CC(O)CC1=O (stereo unspecified),0.992,0.948

Compound,PER2::LUC luminescence (time after treatment 24 h),PER2::LUC luminescence (time after treatment 30 h)
CC[C@H](C)[C@@H]([C@@H](CC(=O)N1CCC[C@H]1[C@H](OC)[C@@H](C)C(=O)N[C@H](C)[C@@H](O)c1ccccc1)OC)N(C)C(=O)[C@@H](NC(=O)[C@@H](NC)C(C)C)C(C)C,0.378,0.38
C[N+](C)(C)CC#CCN1CCCC1=O,0.927,1.11
NC(=O)c1ccc(OCC(O)CN2CC=C(c3ccc(F)cc3)CC2)cc1 (stereo unspecified),1.21,1.19
CC(C)=CC1C(C(=O)OCc2cccc(Oc3ccccc3)c2)C1(C)C (stereo unspecified),0.952,0.891
Clc1ccc([C@]23CNC[C@H]2C3)cc1Cl,0.901,0.838
Cc1ncc2n1-c1ccc(Cl)cc1C(c1ccccc1F)=NC2,0.948,0.97
CC1(C)C(=O)C=C[C@]2(C)[C@H]3CC[C@@]4(C)[C@H](c5ccoc5)OC(=O)[C@H]5O[C@]54[C@]3(C)[C@H](O)C[C@@H]12,0.639,0.941
COc1ccc(CNC(=O)/C=C/c2ccc3[nH]cc(CCN(C)C)c3c2)cc1,0.993,1.09
C[CH2][Hg][S]c1ccccc1C(=O)[O-].[Na+],0.678,0.66
NC(=O)C[S@@+]([O-])C(c1ccccc1)c1ccccc1,0.864,0.961
CC(N)Cc1c[nH]c2ccc(OCc3cccs3)cc12 (stereo unspecified),0.886 and 0.602,0.834 and 0.602
CN1CCC(c2c[nH]c3ccc(O)cc23)CC1,0.846,0.853
CC(C)[C@@]1(NC(=O)[C@@H]2C[C@@H]3c4cccc5[nH]cc(c45)C[C@H]3N(C)C2)O[C@@]2(O)[C@@H]3CCCN3C(=O)[C@H](Cc3ccccc3)N2C1=O,0.916 and 0.676,0.977 and 0.623
CC(=O)C1=C(O)[C@@H]2[C@H]3c4c[nH]c5cccc(c45)C[C@H]3C(C)(C)N2C1=O,1.07,1.1
O=C1C=C2C=C[C@@H]3C[C@@]2(O1)[C@H]1CCCCN31,1,0.891
O[C@H]1[C@H]2[C@H](O)CCCN2C[C@H]1O,1.04,1.02
Oc1noc2c1CCNC2,1.08,0.97
NCCc1cccc(O)c1,0.979,0.922
CC(=O)OC12CC(C)C3(O)C4C=C(C)C(=O)[C@@]4(O)CC(CO)=C[C@H]3C1C2(C)C (stereo partly specified),1.15,0.967
C/C=C(/C)C(=O)O[C@H]1CC[C@@]2(C)[C@@H]3CC[C@H]4[C@]5(O)C[C@H](O)[C@@]6(O)[C@@H](CN7C[C@@H](C)CC[C@H]7[C@@]6(C)O)[C@]5(O)C[C@@]42O[C@]13O,1.1,1.03
CCCC(C)C1(CC)C(=O)NC(=S)NC1=O (stereo unspecified),1.03,0.99
C[C@@H]1O[C@@H](O[C@H]2C[C@@H](O)[C@]3(CO)[C@H]4[C@H](O)C[C@]5(C)[C@@H](C6=CC(=O)OC6)CC[C@]5(O)[C@@H]4CC[C@]3(O)C2)[C@H](O)[C@H](O)[C@H]1O,1.13 and 1.02 and 0.6,0.934 and 0.85 and 0.722
CC(C)C[C@H](NC(=O)[C@H](Cc1ccccc1)NC(=O)CNC(=O)[C@@H](CSC(C)(C)C)NC(=O)[C@@H](N)Cc1ccc(O)cc1)C(=O)N[C@H](C(=O)OC(C)(C)C)[C@@H](C)O,0.915,0.922
